Reference: publication PMC4336329 (PLoS ONE, 2015)
Screen size: about 310,000 compounds; about 2,200 (0.71%) showed an effect of 50% or more. Effects have a minus sign here. The list shows a part of the results.

Target: human ether-à-go-go-related gene (hERG) potassium channel (human, UniProt Q12809)
Test: primary screen, population patch clamp on CHO cells stably expressing hERG

Chain of human ether-à-go-go-related gene (hERG) potassium channel (Q12809 whole entry, looked up): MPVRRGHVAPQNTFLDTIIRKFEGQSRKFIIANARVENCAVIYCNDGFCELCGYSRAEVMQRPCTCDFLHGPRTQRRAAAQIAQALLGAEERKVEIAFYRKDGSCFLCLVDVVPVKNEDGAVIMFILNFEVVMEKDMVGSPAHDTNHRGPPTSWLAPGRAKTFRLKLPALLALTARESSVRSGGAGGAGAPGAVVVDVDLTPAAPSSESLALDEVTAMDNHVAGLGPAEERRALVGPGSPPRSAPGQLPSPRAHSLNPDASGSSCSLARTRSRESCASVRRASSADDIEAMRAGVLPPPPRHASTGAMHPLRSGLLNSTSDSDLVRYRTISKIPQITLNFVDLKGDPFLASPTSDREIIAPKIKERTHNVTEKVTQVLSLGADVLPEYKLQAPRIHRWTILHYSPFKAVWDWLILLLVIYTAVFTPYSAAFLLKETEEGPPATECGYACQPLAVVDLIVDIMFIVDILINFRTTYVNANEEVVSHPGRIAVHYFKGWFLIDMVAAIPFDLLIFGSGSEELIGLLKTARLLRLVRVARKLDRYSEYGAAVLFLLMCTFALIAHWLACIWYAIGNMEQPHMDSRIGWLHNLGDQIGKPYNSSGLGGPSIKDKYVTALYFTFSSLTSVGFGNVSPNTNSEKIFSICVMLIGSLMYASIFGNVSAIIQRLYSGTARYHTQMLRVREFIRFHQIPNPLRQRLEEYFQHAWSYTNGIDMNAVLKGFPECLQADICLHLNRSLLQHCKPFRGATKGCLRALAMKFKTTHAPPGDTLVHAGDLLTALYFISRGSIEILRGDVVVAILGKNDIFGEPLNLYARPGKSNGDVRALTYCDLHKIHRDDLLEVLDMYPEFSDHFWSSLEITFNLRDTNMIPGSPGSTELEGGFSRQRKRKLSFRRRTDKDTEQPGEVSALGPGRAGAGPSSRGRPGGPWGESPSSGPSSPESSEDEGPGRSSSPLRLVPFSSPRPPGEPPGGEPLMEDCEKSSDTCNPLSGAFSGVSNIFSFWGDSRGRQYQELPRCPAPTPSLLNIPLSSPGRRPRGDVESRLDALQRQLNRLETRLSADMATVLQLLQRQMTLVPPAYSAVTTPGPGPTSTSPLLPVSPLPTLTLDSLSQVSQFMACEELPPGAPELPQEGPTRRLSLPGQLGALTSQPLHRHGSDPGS

Structure (SMILES)	hERG current change (%, negative = inhibition) at 1uM
Cc1ccccc1NC(=O)COC(=O)CCSc1ccccc1	19.2%
O=S1(=O)CCN(Cc2ccccc2Cl)CC1	6.18%
OCC(Cc1ccccc1)NCc1ccccc1C(F)(F)F (centres unmarked)	4.8%
O=C(NCCc1ccc(Cl)cc1)C1CCC(=O)N1C1CCCC1 (centres unmarked)	11%
COC(=O)Oc1ccc(/C=N/NC(=O)CN(c2ccccc2Cl)S(C)(=O)=O)cc1OC	9.16%
CC1CCN(C(=O)CCc2nnc3ccc(NCCCN4CCCC4=O)nn23)CC1	15.8%
Cc1[nH]c2ccc(-c3n[nH]c(=S)n3-c3ccc(Br)cc3)cc2c1C	11.8%
Cc1ccc(OCC(=O)N(Cc2ccccc2)c2ccccn2)cc1	9.13%
NS(=O)(=O)c1ccc(N/C=C\C(=O)c2cccc3ccccc23)cc1	9.15%
COC(=O)c1ccc(C23CC4(C2)[C@H](CN(CC2CCCCC2)[C@@H]4c2ccccc2)C3c2ccccc2)cc1 (some centres unmarked)	4.37%
CC(=O)c1ccc(NC(=O)C2CCCN2S(=O)(=O)c2cccc3cccnc23)cc1 (centres unmarked)	12.5%
CC1C2CC(C(S(=O)(=O)N3CCOCC3)C2=O)C1(C)C (centres unmarked)	2.62%
Cc1ccc(NC(=O)Nc2ccc3c(c2)nc(C)n3C)cc1C	6.3%
O=C1Nc2ccccc2/C1=C/c1cnc[nH]1	0.222%
CCOC(=O)N1CCN(c2c(NCCN3CCN(c4ccccc4F)CC3)c(=O)c2=O)CC1	2.73%
O=C(N/N=C\c1coc2ccccc2c1=O)c1ccco1	12.6%
Cc1cccc(N2CCN(C(=O)c3cccc(NC4=NC5CS(=O)(=O)CC5S4)c3)CC2)c1C (centres unmarked)	9.26%
COc1ccc(-c2ccnc(SCC(=O)c3ccc(Cl)cc3)n2)cc1	9.76%
Cc1cc(C2N=C(N)Nc3nc4ccccc4n32)c(C)n1-c1ccccc1Cl (centres unmarked)	11%

Structure (SMILES)	hERG current change (%, negative = inhibition) at 1uM
O=[N+]([O-])c1ccc(O)c(/C=N/n2cnnc2)c1	1.21%
CC1C=Cc2ccccc2N1C(=O)c1ccccc1 (centres unmarked)	-10.3%
COc1ccccc1/C=C1\SC(=S)N(NS(=O)(=O)c2ccc(C)cc2)C1=O	5.73%
Cc1ccc(-c2nnc(NC(=O)c3ccc([N+](=O)[O-])o3)o2)c(C)c1	16.5%
COc1ccc(S(=O)(=O)Nc2cccc(-c3ccc4nncn4n3)c2)cc1F	6.93%
CCC(=O)NC(c1cc(Cl)c2ccccc2c1O)C(C)C (centres unmarked)	-0.749%
NC(=O)CSc1n[nH]c(-c2ccco2)n1	14.9%
CC(C)CC(=O)Nc1ccc(Cc2ccncc2)cc1	13.1%
N#Cc1ccc(OCC(=O)N/N=C(\CCC(=O)O)c2cccs2)cc1	9.05%
COc1ccc(OCC(=O)Nn2c(-c3ccc(C)cc3)nc3ccccc3c2=O)cc1	12%
Cc1ccc(C(=O)Oc2ccc(N3C(=O)CCC3=O)c(C)c2)cc1	8.05%
CCCC/C(C)=N\NC(=O)CNS(=O)(=O)c1ccc([N+](=O)[O-])cc1	-0.163%
CCN(CC)Cc1nc2c(c(=O)[nH]1)C1(CCCC1)Cc1ccccc1-2	-2.55%
CCOc1ccc(S(=O)(=O)Nc2ccccn2)c2ccccc12	10.9%
CC(=O)c1cccc(CN2CCC(CO)(CCOc3ccccc3)CC2)c1	-3.07%
C=CCNC(=S)N(Cc1ccccc1)Cc1ccc(F)cc1	7.88%
COc1ccccc1N(CC(=O)NCc1ccco1)S(=O)(=O)c1ccc(C)cc1	13.5%
COc1ccccc1C1(CCNC(C)c2cccs2)CCOC(C(C)C)C1 (centres unmarked)	8.27%
COc1ccc(C(=O)Nc2cccc(NC(=O)c3ccc(OC)cc3OC)n2)c(OC)c1	18.4%

Structure (SMILES)	hERG current change (%, negative = inhibition) at 1uM
CCC(=O)N/N=C(\C)CC(=O)Nc1cc(Cl)ccc1C	3.18%
COc1ccc(-c2c(C)nc(N)nc2-c2ccc(OCc3ccc(C)cc3)cc2O)cc1OC	9.05%
c1ccc(-c2cc(NCCN3CCCCC3)c3ccccc3n2)cc1	16.4%
COCCN1CCn2c(nc3cc(NC(=O)c4cccs4)ccc32)C1	0.263%
CN(CC(=O)Nc1ccc(Cl)c(C(F)(F)F)c1)C(=O)C1CCCO1 (centres unmarked)	12.6%
Cc1c(C(=O)O)oc2ccc(S(=O)(=O)N3CC(C)CC(C)C3)cc12 (centres unmarked)	8.01%
COc1cccc(C2C(C(=O)c3sc(C)nc3C)=C(O)C(=O)N2CCN2CCOCC2)c1 (centres unmarked)	8.92%
Cc1ccc(C2C(C(=O)c3cccs3)=C(O)C(=O)N2c2nnc(C)s2)cc1 (centres unmarked)	11.2%
Cc1cc(O)c(CN(C)C)c2c1C(=O)/C(=C/c1ccco1)O2	10.4%
COc1cccc(-c2nnc(SC(C(=O)c3c[nH]c4ccccc34)c3ccccc3)n2C)c1 (centres unmarked)	17.4%
CC(C)(C)c1ccc(-n2ncc3c2CCCC3NC(=O)C2=NNC(=O)CC2)cc1 (centres unmarked)	-5.06%
Cc1cccc(OCCCC(=O)Nc2ccc(S(N)(=O)=O)cc2)c1	13.7%
O=C(Nc1ccc2ccccc2n1)c1ccc(Cl)cc1	13.5%
O=C1CC(c2ccccc2)n2nc(N3C(=O)c4ccccc4C3=O)nc2N1 (centres unmarked)	-3.45%
CCC1SC2=NCCN2C1(O)c1ccc(Cl)cc1 (centres unmarked)	-1.76%
COC(=O)Nc1ccc(S(=O)(=O)N2CCCC(C(=O)N3CCCCCC3)C2)cc1 (centres unmarked)	13.3%
CC(C)(C)NC(=O)NC(=O)C[n+]1ccc(Cc2ccc([N+](=O)[O-])cc2)cc1.[Cl-]	10.3%
O=C1NC2(CCOc3ccccc32)C(=O)N1CC(=O)N(Cc1ccccc1)C1CCS(=O)(=O)C1 (centres unmarked)	10.9%
